The target of this experiment is Sortilin receptor on HEK293 cells (UniProt Q99523 78-831, limits assumed). As to the kind of experiment: cell-based or functional assay.

B1: Comparative Ex. 2 (8D3-PGRN HEK) (Fc fusion)
chain 1: EVQLVESGGGLVQPGNSLTLSCVASGFTFSNYGMHWIRQAPKKCLEWIAMIYYDSSKMNYADTVKGRFTISRDNSKNTLYLEMNSLRSEDTAMYYCAVPTSHYVVDVWGQGVSVTVSSGGGGSGGGGSGGGGSGGGGSGGGGSDIQMTQSPASLSASLEEIVTITCQASQDIGNWLAWYQQKPGKSPQLLIYGATSLADGVPSRFSGSRSGTQFSLKISRVQVEDIGIYYCLQAYNTPWTFGCGTKLELKGGGGQGGGGQGGGGQ[left out - human IgG1 Fc with changes]
chain 2: [left out - human IgG1 Fc with changes]GGGGSGGGGSTRCPDGQFCPVACCLDPGGASYSCCRPLLDKWPTTLSRHLGGPCQVDAHCSAGHSCIFTVSGTSSCCPFPEAVACGDGHHCCPRGFHCSADGRSCFQRSGNNSVGAIQCPDSQFECPDFSTCCVMVDGSWGCCPMPQASCCEDRVHCCPHGAFCDLVHTRCITPTGTHPLAKKLPAQRTNRAVALSSSVMCPDARSRCPDGSTCCELPSGKYGCCPMPNATCCSDHLHCCPQDTVCDLIQSKCLSKENATTDLLTKLPAHTVGDVKCDMEVSCPDGYTCCRLQSGAWGCCPFTQAVCCEDHIHCCPAGFTCDTQKGTCEQGPHQVPWMEKAPAHLSLPDPQALKRDVPCDNVSSCPSSDTCCQLTSGEWGCCPIPEAVCCSDHQHCCPQGYTCVAEGQCQRGSEIVAGLEKMPARRASLSHPRDIGCDQHTSCPVGQTCCPSLGGSWACCQLPHAVCCEDRQHCCPAGYTCNVKARSCEKEVVSAQPATFLARSPHVGVKDVECGEGHFCHDNQTCCRDNRQGWACCPYRQGVCCADRRHCCPAGFRCAARGTKCLRREAPRWDAPLRDPALRQLL
notes: Knob-and-hole Fc heterodimer; progranulin C-terminus free; also called scFv 8D3-hIgG1-LALA knob / hIgG1 LALA hole-PGRN
Turning to B1, the “Mature Cathepsin D levels in cell lysate (ELISA), HEK293 cells, 100 ng/mL, 24 hours” value came out at 55.1.

Values taken from US20250000992A1 (Eli Lilly, published 2025).
